Measurements as given in patent US10299477B2 (priority 2015, dated 2019).

Each compound was assayed on Colletotrichum orbiculare. Settings: in vivo.

| Compound | Test H (control value class) |
| --- | --- |
| Cn1c(-c2c(F)cc(F)cc2F)c(-c2cccc(F)c2Cl)ccc1=O [Compound 491] | H (key: H shows more than 50% of control values; L shows 50% or less of control values) |
| COc1cc(F)c(-c2c(-c3cccc(F)c3Cl)ccc(=O)n2C)c(F)c1 [Compound 492] | H (key: H shows more than 50% of control values; L shows 50% or less of control values) |
| CCn1c(-c2c(F)cccc2F)c(-c2cccc(Cl)c2F)cc(C)c1=O [Compound 493] | H (key: H shows more than 50% of control values; L shows 50% or less of control values) |
| O=c1ccc(-c2cccc(Cl)c2F)c(-c2c(F)cccc2F)n1CC(F)F [Compound 494] | L (key: H shows more than 50% of control values; L shows 50% or less of control values) |
| O=c1c(Cl)cc(-c2cccc(Cl)c2F)c(-c2c(F)cccc2F)n1CC(F)F [Compound 495] | L (key: H shows more than 50% of control values; L shows 50% or less of control values) |
| COc1ccc(Cl)c(-c2ccc(=O)n(C3CC3)c2-c2c(F)cccc2F)c1 [Compound 496] | H (key: H shows more than 50% of control values; L shows 50% or less of control values) |
| CCn1c(-c2c(F)cccc2F)c(-c2cc(F)ccc2F)cc(C)c1=O [Compound 497] | H (key: H shows more than 50% of control values; L shows 50% or less of control values) |
| COc1ccc(Cl)c(-c2cc(Cl)c(=O)n(C3CC3)c2-c2c(F)cccc2F)c1 [Compound 498] | H (key: H shows more than 50% of control values; L shows 50% or less of control values) |
| Cc1cc(-c2cc(F)ccc2F)c(-c2c(F)cccc2F)n(C)c1=O [Compound 499] | H (key: H shows more than 50% of control values; L shows 50% or less of control values) |
| Cn1c(-c2c(F)cc(F)cc2F)c(-c2cccc(F)c2Cl)cc(Cl)c1=O [Compound 500] | H (key: H shows more than 50% of control values; L shows 50% or less of control values) |
| COc1cc(F)c(-c2c(-c3cccc(F)c3Cl)cc(Cl)c(=O)n2C)c(F)c1 [Compound 504] | H (key: H shows more than 50% of control values; L shows 50% or less of control values) |
| Cc1cc(-c2cccc(F)c2Cl)c(-c2c(F)cc(F)cc2F)n(C)c1=O [Compound 505] | H (key: H shows more than 50% of control values; L shows 50% or less of control values) |
| CCn1c(-c2c(F)cccc2F)c(-c2cccc(F)c2Cl)ccc1=O [Compound 506] | H (key: H shows more than 50% of control values; L shows 50% or less of control values) |
| CCn1c(-c2c(F)cccc2F)c(-c2cccc(F)c2Cl)cc(Cl)c1=O [Compound 507] | H (key: H shows more than 50% of control values; L shows 50% or less of control values) |
| Cn1c(-c2c(F)cccc2F)c(-c2cccc(F)c2Cl)ccc1=O [Compound 508] | H (key: H shows more than 50% of control values; L shows 50% or less of control values) |
| Cn1c(-c2c(F)cccc2F)c(-c2cccc(F)c2Cl)cc(Cl)c1=O [Compound 509] | H (key: H shows more than 50% of control values; L shows 50% or less of control values) |
| O=c1ccc(-c2cccc(F)c2Cl)c(-c2c(F)cccc2F)n1CC(F)F [Compound 510] | H (key: H shows more than 50% of control values; L shows 50% or less of control values) |
| CCn1c(-c2c(F)cccc2F)c(-c2cc(F)ccc2Cl)cc(F)c1=O [Compound 512] | H (key: H shows more than 50% of control values; L shows 50% or less of control values) |
| Cn1c(-c2c(F)cccc2F)c(-c2cc(F)ccc2Cl)cc(F)c1=O [Compound 513] | H (key: H shows more than 50% of control values; L shows 50% or less of control values) |
| CCN1C(=O)CCC(c2ccccc2F)=C1c1c(F)cc(F)cc1F [Compound 514] | H (key: H shows more than 50% of control values; L shows 50% or less of control values) |
